Reference: the antibiotic and cytotoxicity screens of Wong et al. (2023)
The other results are listed elsewhere or left out.

How the values were obtained:
HSkMC = human skeletal muscle cells; assay: cytotoxicity call (relative viability < 0.9); conditions: 10 µM
HepG2 = assay: cytotoxicity call (relative viability < 0.9); conditions: 10 µM
S. aureus RN4220 = assay: growth inhibition call (relative growth <= 0.2); conditions: 50 µM

COc1ccc(N(C(=O)CSc2ncccn2)[C@@H](C(=O)NCCc2ccccc2)c2cccs2)cc1Cl
cytotoxicity call (HSkMC): inactive
cytotoxicity call (HepG2): inactive
growth inhibition call (S. aureus RN4220): inactive

COc1ccc(CN(C)C[C@@H]2Oc3ccc(NS(=O)(=O)c4cn(C)cn4)cc3CC(=O)N([C@H](C)CO)C[C@@H]2C)cc1
cytotoxicity call (HSkMC): inactive
cytotoxicity call (HepG2): inactive
growth inhibition call (S. aureus RN4220): inactive

C[C@H]1CN([C@@H](C)CO)C(=O)c2cc(C#CCN(C)C)cnc2O[C@H]1CN(C)Cc1cccc(C(=O)O)c1
cytotoxicity call (HSkMC): inactive
cytotoxicity call (HepG2): inactive
growth inhibition call (S. aureus RN4220): inactive

C[C@H](CO)N1C[C@H](C)[C@@H](CN(C)C(=O)Cc2cccnc2)Oc2cc(C#CC3(O)CCCC3)ccc2S1(=O)=O
cytotoxicity call (HSkMC): inactive
cytotoxicity call (HepG2): inactive
growth inhibition call (S. aureus RN4220): inactive

C[C@@H]1CN([C@H](C)CO)C(=O)Cc2cc(NC(=O)c3ccncc3)ccc2O[C@H]1CN(C)S(=O)(=O)c1ccc(Cl)cc1
cytotoxicity call (HSkMC): inactive
cytotoxicity call (HepG2): inactive
growth inhibition call (S. aureus RN4220): inactive

C[C@@H]1CN([C@@H](C)CO)S(=O)(=O)c2ccc(C#CC(C)(C)O)cc2O[C@@H]1CN(C)C(=O)CN(C)C
cytotoxicity call (HSkMC): inactive
cytotoxicity call (HepG2): inactive
growth inhibition call (S. aureus RN4220): inactive

C[C@H]1CN([C@@H](C)CO)C(=O)c2cccc(NS(=O)(=O)c3cn(C)cn3)c2O[C@@H]1CN(C)CC1CC1
cytotoxicity call (HSkMC): inactive
cytotoxicity call (HepG2): inactive
growth inhibition call (S. aureus RN4220): inactive

C=c1ccc(C)cc1=C1NN=C(NC(=O)c2ccc(S(=O)(=O)N(CCOC)CCOC)cc2)O1
cytotoxicity call (HSkMC): active
cytotoxicity call (HepG2): inactive
growth inhibition call (S. aureus RN4220): inactive

C[C@@H]1CN([C@H](C)CO)C(=O)CCCn2nncc2CO[C@H]1CN(C)C(=O)c1cc(-c2ccccc2)on1
cytotoxicity call (HSkMC): inactive
cytotoxicity call (HepG2): inactive
growth inhibition call (S. aureus RN4220): inactive

CO[C@@H](CN(C)S(=O)(=O)c1ccc(F)cc1)[C@@H](C)CN([C@H](C)CO)S(=O)(=O)c1cccc(Cl)c1
cytotoxicity call (HSkMC): inactive
cytotoxicity call (HepG2): inactive
growth inhibition call (S. aureus RN4220): inactive

CC(C)NC(=O)N(C)C[C@H]1Oc2ccc(NC(=O)C3CCCCC3)cc2C(=O)N([C@H](C)CO)C[C@H]1C
cytotoxicity call (HSkMC): inactive
cytotoxicity call (HepG2): inactive
growth inhibition call (S. aureus RN4220): inactive

CO[C@H]1CN(C)C(=O)c2ccc(NC(=O)Nc3ccc(Cl)cc3)cc2OC[C@H](C)N(C(=O)Nc2c(C)noc2C)C[C@H]1C
cytotoxicity call (HSkMC): inactive
cytotoxicity call (HepG2): inactive
growth inhibition call (S. aureus RN4220): inactive

CC(C)(C)c1cc(CN)n[nH]1
cytotoxicity call (HSkMC): inactive
cytotoxicity call (HepG2): inactive
growth inhibition call (S. aureus RN4220): inactive

C[C@@H]1CN([C@@H](C)CO)C(=O)c2cc(NC(=O)Nc3ccc(F)cc3)ccc2O[C@@H](C)CCCCO[C@H]1CN(C)Cc1ccncc1
cytotoxicity call (HSkMC): inactive
cytotoxicity call (HepG2): inactive
growth inhibition call (S. aureus RN4220): inactive

Cc1noc(C)c1NC(=O)N(C)C[C@H]1Oc2ccc(NS(=O)(=O)c3ccccc3)cc2C(=O)N([C@@H](C)CO)C[C@@H]1C
cytotoxicity call (HSkMC): inactive
cytotoxicity call (HepG2): inactive
growth inhibition call (S. aureus RN4220): inactive

O=C(C[C@@H]1C=C[C@H](NC(=O)c2cccnc2)[C@@H](CO)O1)NCc1ccncn1
cytotoxicity call (HSkMC): inactive
cytotoxicity call (HepG2): inactive
growth inhibition call (S. aureus RN4220): inactive

C[C@H]1CN([C@@H](C)CO)S(=O)(=O)c2ccc(C#CCN(C)C)cc2O[C@H]1CN(C)S(=O)(=O)c1cccc(F)c1
cytotoxicity call (HSkMC): inactive
cytotoxicity call (HepG2): inactive
growth inhibition call (S. aureus RN4220): inactive

C[C@H](CO)N1C[C@H](C)[C@H](CN(C)C)Oc2cc(C#CCN(C)C)ccc2S1(=O)=O
cytotoxicity call (HSkMC): inactive
cytotoxicity call (HepG2): inactive
growth inhibition call (S. aureus RN4220): inactive

COc1ccc(S(=O)(=O)Nc2ccc3c(c2)CC(=O)N([C@H](C)CO)C[C@@H](C)[C@H](CN(C)CC2CC2)O3)cc1
cytotoxicity call (HSkMC): inactive
cytotoxicity call (HepG2): inactive
growth inhibition call (S. aureus RN4220): inactive

CCCCCCCCCCCCCCCCCCOC[C@H](COP(=O)(O)O[C@H]1[C@@H](O)[C@@H](O)[C@@H](O)C[C@@H]1OC)OC
cytotoxicity call (HSkMC): inactive
cytotoxicity call (HepG2): inactive
growth inhibition call (S. aureus RN4220): inactive

C[C@@H]1CN([C@@H](C)CO)C(=O)c2cc(NS(C)(=O)=O)ccc2O[C@@H]1CN(C)S(C)(=O)=O
cytotoxicity call (HSkMC): inactive
cytotoxicity call (HepG2): inactive
growth inhibition call (S. aureus RN4220): inactive

C[C@@H]1CN([C@@H](C)CO)C(=O)CCCn2cc(nn2)CO[C@H]1CN(C)Cc1cccc2c1OCCCO2
cytotoxicity call (HSkMC): inactive
cytotoxicity call (HepG2): inactive
growth inhibition call (S. aureus RN4220): inactive

CCNC1CC(C)S(=O)(=O)c2sc(S(N)(=O)=O)cc21.Cl (stereo not drawn)
cytotoxicity call (HSkMC): inactive
cytotoxicity call (HepG2): inactive
growth inhibition call (S. aureus RN4220): inactive

Cc1noc(C)c1S(=O)(=O)N(C)C[C@@H]1Oc2ccc(NC(=O)C3CCCCC3)cc2CC(=O)N([C@@H](C)CO)C[C@H]1C
cytotoxicity call (HSkMC): inactive
cytotoxicity call (HepG2): inactive
growth inhibition call (S. aureus RN4220): inactive

C[C@H]1CN([C@@H](C)CO)C(=O)c2cccc(NS(=O)(=O)c3cccs3)c2O[C@H]1CN(C)S(=O)(=O)c1cn(C)cn1
cytotoxicity call (HSkMC): inactive
cytotoxicity call (HepG2): inactive
growth inhibition call (S. aureus RN4220): inactive

COc1ccc(NC(=O)N(C)C[C@H]2OCCCC[C@H](C)Oc3ccc(NS(=O)(=O)c4ccc(F)cc4)cc3C(=O)N([C@H](C)CO)C[C@@H]2C)cc1
cytotoxicity call (HSkMC): inactive
cytotoxicity call (HepG2): inactive
growth inhibition call (S. aureus RN4220): inactive
